About 1,700 (3.3%) of roughly 52,000 compounds were called active. No stated cut-off is given here; in the data, active means survival mostly below about 52% (no sharp cut-off); inactive means mostly above about 56%. This is one part of the list.
System: Wild type
Assay: growth inhibition of S. aureus wild type versus tarO mutant, primary screen, teichoic acid synthesis inhibitors, RN4220, OD600 (AID 463173)
Settings: S. aureus RN4220 wild type/DeltatarO growth, OD600, 18 h, active compounds read low, screened at 18.75 µg/mL (by protocol)

SMILES	survival
O=C1CN(C(=O)c2ccc(S(=O)(=O)N3CCCCC3)cc2)C(c2ccc(F)cc2)c2cc(Br)ccc2N1 (stereo not drawn)	inactive: 100%
CCCC(=O)C1=C(N2CCN(C3=C(C(=O)CCC)C(=O)CC(C)(C)C3)CC2)CC(C)(C)CC1=O	inactive: 94%
Cc1ccccc1NC(=O)Cn1c(=O)n(CCC(=O)NCc2ccc3c(c2)OCO3)c(=O)c2sccc21	inactive: 138%
CC(=O)N1CCc2cc(CNS(=O)(=O)c3ccc(C(C)(C)C)cc3)ccc21	inactive: 79%
O=S1(=O)CCC(N2CCCCC2)C1 (stereo not drawn)	inactive: 98%
Cc1ccc(NC(=O)C2CCN(c3ncccn3)CC2)cc1F	inactive: 92%
COC1=NS(=O)(=O)c2ccccc21	inactive: 104%
CCC(C(=O)N1CC2(C)CC1CC(C)(C)C2)N1C(=O)c2ccccc2C1=O (stereo not drawn)	inactive: 105%
CCOc1ccccc1NC(=O)C(C)n1nnc2sc3c(c2c1=O)CCCC3 (stereo not drawn)	inactive: 120%
COc1ccc(NC(=O)CSc2nc3ccccc3n2CC(=O)Nc2cccc(C)c2C)cc1	inactive: 136%
CCn1c(CNC(=O)C23CC4CC(CC(C4)C2)C3)nnc1SCC(=O)Nc1ccc(OC)cc1	inactive: 96%
O=C(COc1cccc(Cl)c1)N1CCC(c2nc3ccccc3s2)CC1	inactive: 37%
Cc1ccc(CCNC(=O)c2ccc(Cn3c(=O)c4cccn4c4cccnc43)cc2)cc1	inactive: 82%
COc1cc(OC)c(NC(=O)Nc2sc3nc4n(c(=O)c3c2C)CCC(C)CC4)cc1Cl (stereo not drawn)	inactive: 87%
Cc1ccc(-n2c(SCC(N)=O)nc3c(oc4ccccc43)c2=O)cc1	inactive: 65%
O=S(=O)(Nc1ccc(-c2ccc(N3CCCC3)nn2)cc1)c1ccccc1Cl	inactive: 87%
O=C(O)c1cccc(NC(=O)c2cccc(S(=O)(=O)Nc3cccc(F)c3)c2)c1	inactive: 169%
Cn1c(SCC(=O)N2c3ccccc3CCc3ccccc32)nnc1C1CC1	inactive: 96%
Cc1cc(C)cc(NC(=O)c2cc(S(=O)(=O)N3CCOCC3)cn2C)c1	inactive: 84%
Cc1cccc2cc(CN(C(=O)C(F)(F)F)C3CCCC3)c3nnnn3c12	inactive: 101%
Cc1ccc(N2CCN(c3nc4ccccc4n4nnnc34)CC2)c(C)c1	inactive: 85%
COc1cccc(C(=O)Nc2ccccc2SCc2cc(=O)c3cccc(C)c3[nH]2)c1	inactive: 59%

SMILES	survival
N#Cc1c[nH]n2c(NC3CCCC3)c(-c3ccc(Br)cc3)nc12	inactive: 84%
Cc1ccc(Cl)cc1N1CCN(C(=O)c2cnn(-c3ccc(Cl)cc3)c2C2CCNCC2)CC1	inactive: 83%
CCOc1ccc(C2c3c(oc4ccccc4c3=O)C(=O)N2Cc2ccc3c(c2)OCO3)cc1 (stereo not drawn)	inactive: 31%
Cc1ccc(Nc2c(-c3ccc(N4CCOCC4)cc3)nc3ccc(Cl)cn23)cc1	inactive: 84%
Cc1cc2c(cc1S(=O)(=O)N1CCC(C(N)=O)CC1)OCC(=O)N2	inactive: 81%
Cc1cc(C)c(NC(=O)Cn2nnc(-c3nc(-c4ccncc4)no3)c2N)c(C)c1	inactive: 71%
Cc1cccc(-c2nnn3c2nc(NCCC(C)C)c2ccccc23)c1	inactive: 89%
N#C/C(=C\c1ccc2c(c1)OCO2)c1ccccc1	inactive: 109%
O=C(CSc1nc2c([nH]c3ccccc32)c(=O)n1-c1cccc(C(F)(F)F)c1)N1CCCC1	inactive: 78%
CCOC(=O)c1cccc(NC(=O)C2(S(=O)(=O)c3ccc(C)cc3)CC2)c1	inactive: 84%
COc1cccc(C(=O)Nc2ccc(-c3nc4ccc(C)cc4s3)cc2)c1OC	inactive: 22%
COc1cn(CC(=O)Nc2ccc(C)cc2C)c(CN2CCCCC2)cc1=O	inactive: 68%
CCn1c2ccccc2c2cc(/C=N/NC(=O)Cc3cccs3)ccc21	inactive: 108%
CC(=O)c1ccc(NC(=O)/C=C/c2ccc(C)o2)cc1	inactive: 65%
CCCNC(=O)C1CCC(Cn2c(=O)c3sccc3n(CC(=O)N3CCCC(C)C3)c2=O)CC1 (stereo not drawn)	inactive: 72%
CCOc1cccc(C2c3c(oc4ccc(F)cc4c3=O)C(=O)N2CCOC)c1 (stereo not drawn)	inactive: 71%
COc1ccc(S(=O)(=O)NCC(c2ccc(N(C)C)cc2)N2CCCC2)cc1F (stereo not drawn)	inactive: 73%
CCOc1ccc(C(=O)NC2CCN(CC(=O)NCc3ccccc3)CC2)cc1	inactive: 104%
CC(=O)C1=C(c2ccc(C)cc2)N(C(C)=O)n2c(nnc2-c2ccccc2)S1	inactive: 134%
Cc1cccc(OCC(=O)NCC2(N3CCN(C)CC3)CCCCC2)c1	inactive: 83%
Cc1ccc(Cl)cc1N1CCN(S(=O)(=O)c2ccc3oc(=O)c4ncn(C)c4c3c2)CC1	inactive: 104%
CCc1ccc(OCC(=O)Nc2ccc(Cl)c(-c3nc4cc(C)cc(C)c4o3)c2)cc1	inactive: 51%

SMILES	survival
Cc1ccccc1Cn1cc(NC(=O)c2cc(-c3ccc(Cl)cc3)on2)cn1	inactive: 104%
Cc1[nH]c2ccc(C(=O)NCCc3ccccc3Cl)cc2c1C	inactive: 86%
Cc1cccc(NC(=O)CN2C(=O)COc3ccc(S(=O)(=O)Nc4ccccc4)cc32)c1C	inactive: 123%
S=C(Nc1ccccc1)Nc1ccccn1	inactive: 114%
Cc1ccc(S(=O)(=O)c2nnn3c2nc(NCc2ccc(F)cc2)c2sccc23)cc1C	inactive: 66%
CC(C)OCCCn1c(=O)c2ccccc2n2c(-c3ccc(F)c(F)c3)nnc12	inactive: 88%
CCCS(=O)(=O)N1CC(=O)N(c2ccccc2C)C(C)(C(=O)NC2CCCCC2)C1 (stereo not drawn)	inactive: 70%
COc1ccc(Nc2cc(C(=O)NCc3ccccc3)c3ccccc3n2)cc1	inactive: 112%
Cc1nn(-c2ccc(N3CCCC3)nn2)c(C)c1CCC(=O)NCc1ccc(F)cc1	inactive: 81%
CCC1CN(C(=O)N2CCC(C(=O)NCc3ccc(C)o3)CC2)c2ccccc2O1 (stereo not drawn)	inactive: 87%
O=C(Cn1c(=O)n(Cc2ccc(F)cc2)c(=O)c2sc3ccccc3c21)NCc1ccccc1	inactive: 88%
Cc1ccc(OCCSc2nc3ccccc3n2CC(=O)N2CCCCC2)c(C)c1	inactive: 71%
Cc1nc2ccc(S(=O)(=O)N(CC(=O)Nc3cccc(C)c3C)Cc3ccccc3)cc2s1	inactive: 70%
Cc1ccc(C)c(Cn2c(C(C)NC(=O)c3ccccc3)nc3ccccc32)c1 (stereo not drawn)	inactive: 88%
O=C(Cn1c(=O)oc2cc(S(=O)(=O)N3CCCC3)ccc21)Nc1ccc(OC(F)(F)F)cc1	inactive: 85%
COc1ccc(-c2nc3sc(CCNC(=O)C(=O)Nc4ccc(C)cc4C)c(C)n3n2)cc1	inactive: 82%
Cc1ccc(NC(=O)C2CCC(CNS(=O)(=O)c3cccc4nsnc34)CC2)c(C)c1 (stereo not drawn)	inactive: 81%
O=C(CSC1=Nc2ccccc2C2=NC(Cc3ccccc3)C(=O)N12)Nc1ccccc1 (stereo not drawn)	inactive: 91%
O=C(NCc1noc2ccccc12)N1CCN(c2ccccc2F)CC1	inactive: 85%
COc1cccc(OCc2nc3ccccc3n2C)c1	inactive: 84%
O=C(CCn1cnc2onc(-c3ccc(F)cc3)c2c1=O)N1CCN(c2ccccc2)CC1	inactive: 75%
CCOc1cccc2cc(-c3nc(-c4ccc(Cl)cc4)c(C)s3)c(=O)oc12	inactive: 79%

SMILES	survival
COc1ccc(Cn2c(CCC(=O)Nc3cccc(Cl)c3)nc3cccnc32)cc1	inactive: 132%
Cc1nc(N2CCOCC2)c2c(C(=O)N3CCN(c4ccc(Cl)cc4)CC3)c(C)oc2n1	inactive: 79%
COc1ccc(-c2ccc(NS(=O)(=O)c3ccccc3Cl)cc2)nn1	inactive: 84%
COc1ccc(-c2nsc(NC(=O)c3cccc(OC)c3)n2)cc1	inactive: 84%
CCN(CC)CCNC(=O)c1ccc2c(=O)n3nc(Nc4cccc(Cl)c4C)sc3nc2c1	inactive: 153%
CCOc1ccc(C(c2c(C)[nH]n(-c3ccccc3)c2=O)c2c(C)[nH]n(-c3ccccc3)c2=O)cc1OC	inactive: 71%
CCc1ccc(-c2cn3c(n2)sc2cc(C(=O)NCCCc4ccccc4)ccc23)cc1	inactive: 79%
CCc1nn2c(=O)cc(COC(=O)c3cccs3)nc2s1	inactive: 89%
CCOc1ccccc1CNC(=O)c1ccc2nc(CCc3ccccc3)oc2c1	inactive: 84%
CC(Oc1ccccc1)C(=O)Nc1ccc(C(=O)OCc2cc(=O)n3ccsc3n2)cc1 (stereo not drawn)	inactive: 72%
CC(=O)N/N=C/c1cc(C(C)C)cc(/C=N/NC(C)=O)c1O	inactive: 116%
Cc1cccc(C(=O)NCC(=O)OCc2cc(=O)n3nc(C)sc3n2)c1	inactive: 84%
N#Cc1nc(/C=C/c2ccc(F)cc2)oc1N1CCCCC1	inactive: 107%
COC(=O)c1ccc(CN(Cc2ccc(OC)c(OC)c2)S(=O)(=O)c2ccc(F)c(C(=O)Nc3cc(C)ccc3C)c2)cc1	inactive: 128%
CCOc1ccccc1NC(=O)CN1Cc2ccccc2C1=O	inactive: 70%
Cc1cc(-c2ccccc2)nc2cc(C(=O)Nc3cc(C(F)(F)F)ccc3Cl)nn12	inactive: 72%
COc1ccc(CNC(=O)c2ccc3c(Cl)c4c(nc3c2)CCCC4)c(OC)c1	inactive: 117%
Cc1cccc(Nc2cc(C)nc3nc(Cc4ccc(Cl)cc4)nn23)c1	inactive: 42%
CCOC(=O)c1ccc(NC(=O)Cn2cc(S(=O)(=O)Cc3ccccc3F)c3ccccc32)cc1	inactive: 75%
CCCOc1ccccc1C(=O)Nc1ccc(-c2nc3ccc(C)cc3s2)cc1	inactive: 43%
Cc1ccc(Cn2cc3c(n2)-c2c(oc(C(=O)Nc4ccc(F)cc4F)c2C)CC3)cc1	inactive: 85%
Cc1nc(SCC(=O)Nc2ccc(Cl)cc2C(F)(F)F)[nH]c(=O)c1Cc1ccccc1	inactive: 60%
